The other results are listed elsewhere or left out.
Key:
Test in all cases: glycan array binding signal (z-score within array); higher = stronger binding
Settings in all cases: glycan notation: IUPAC condensed, linker removed
[1] = biological target: Fuc(a1-2)Gal(b1-4)GlcNAc(b1-3)Gal(b1-4)GlcNAc(b1-2)Man(a1-3)[Fuc(a1-2)Gal(b1-4)GlcNAc(b1-3)Gal(b1-4)GlcNAc(b1-2)Man(a1-6)]Man(b1-4)GlcNAc(b1-4)GlcNAc
In short: (§1)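 Glycan array binding is given as a within-array Z-score, which can be read as non-binding when negative. The arrays, 3228 of them, came from the Consortium for Functional Glycomics database and were retained only where the protein sequence was available. Z-scores were averaged across arrays of the same protein sequence at different concentrations or buffers and across linkers.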

[2] = biological target: Fuc(a1-2)Gal(b1-4)GlcNAc(b1-3)Gal(b1-4)GlcNAc(b1-3)Gal(b1-4)GlcNAc
In short: as §1

[3] = biological target: Fuc(a1-2)Gal(b1-4)GlcNAc(b1-3)GalNAc
In short: as §1

[4] = biological target: Fuc(a1-2)Gal(b1-4)GlcNAc(b1-3)[Fuc(a1-2)Gal(b1-4)GlcNAc(b1-6)]GalNAc
In short: as §1

[5] = biological target: Fuc(a1-2)Gal(b1-4)GlcNAc(b1-3)[Fuc(a1-3)[Gal(b1-4)]GlcNAc(b1-6)]Gal(b1-4)Glc
In short: as §1

[6] = biological target: Fuc(a1-2)Gal(b1-4)GlcNAc(b1-6)GalNAc
In short: as §1

[7] = biological target: Fuc(a1-2)Gal(b1-4)GlcNAc6S
In short: as §1

[8] = biological target: Fuc(a1-2)Gal(b1-4)[Fuc(a1-3)]GlcNAc
In short: as §1

[9] = biological target: Fuc(a1-2)Gal(b1-4)[Fuc(a1-3)]GlcNAc(b1-2)Man(a1-3)[Fuc(a1-2)Gal(b1-4)[Fuc(a1-3)]GlcNAc(b1-2)Man(a1-6)]Man(b1-4)GlcNAc(b1-4)[Fuc(a1-6)]GlcNAc
In short: as §1

[10] = biological target: Fuc(a1-2)Gal(b1-4)[Fuc(a1-3)]GlcNAc(b1-2)[Fuc(a1-2)Gal(b1-4)[Fuc(a1-3)]GlcNAc(b1-4)]Man(a1-3)[Fuc(a1-2)Gal(b1-4)[Fuc(a1-3)]GlcNAc(b1-2)Man(a1-6)]Man(b1-4)GlcNAc(b1-4)GlcNAc
In short: as §1

[11] = biological target: Fuc(a1-2)Gal(b1-4)[Fuc(a1-3)]GlcNAc(b1-3)Gal(b1-4)[Fuc(a1-3)]GlcNAc
In short: as §1

[12] = biological target: Fuc(a1-2)Gal(b1-4)[Fuc(a1-3)]GlcNAc(b1-3)Gal(b1-4)[Fuc(a1-3)]GlcNAc(b1-3)Gal(b1-4)[Fuc(a1-3)]GlcNAc
In short: as §1

[13] = biological target: Fuc(a1-2)Gal(b1-4)[Fuc(a1-3)]GlcNAc(b1-3)GalNAc
In short: as §1

[14] = biological target: Fuc(a1-2)Gal(b1-4)[Fuc(a1-3)]GlcNAc(b1-3)[Neu5Ac(a2-6)Gal(b1-4)GlcNAc(b1-6)]Gal(b1-4)Glc
In short: as §1

[15] = biological target: Fuc(a1-2)Gal3S(b1-4)GlcNAc
In short: as §1

[16] = biological target: Fuc(a1-2)Gal6S(b1-3)GlcNAc
In short: as §1

[17] = biological target: Fuc(a1-2)Gal6S(b1-3)GlcNAc6S
In short: as §1

[18] = biological target: Fuc(a1-2)Gal6S(b1-4)Glc
In short: as §1

[19] = biological target: Fuc(a1-2)Gal6S(b1-4)Glc6S
In short: as §1

[20] = biological target: Fuc(a1-2)[Gal(a1-3)]Gal
In short: as §1

[21] = biological target: Fuc(a1-2)[Gal(a1-3)]Gal(b1-3)GalNAc
In short: as §1

[22] = biological target: Fuc(a1-2)[Gal(a1-3)]Gal(b1-3)GalNAc(b1-3)Gal(a1-4)Gal(b1-4)Glc
In short: as §1

[23] = biological target: Fuc(a1-2)[Gal(a1-3)]Gal(b1-3)GlcNAc
In short: as §1

[24] = biological target: Fuc(a1-2)[Gal(a1-3)]Gal(b1-3)GlcNAc(b1-2)Man(a1-3)[Fuc(a1-2)[Gal(a1-3)]Gal(b1-3)GlcNAc(b1-2)Man(a1-6)]Man(b1-4)GlcNAc(b1-4)GlcNAc
In short: as §1

[25] = biological target: Fuc(a1-2)[Gal(a1-3)]Gal(b1-3)GlcNAc(b1-2)Man(a1-3)[Fuc(a1-2)[Gal(a1-3)]Gal(b1-3)GlcNAc(b1-2)Man(a1-6)]Man(b1-4)GlcNAc(b1-4)[Fuc(a1-6)]GlcNAc
In short: as §1

[26] = biological target: Fuc(a1-2)[Gal(a1-3)]Gal(b1-3)GlcNAc(b1-3)GalNAc
In short: as §1

[27] = biological target: Fuc(a1-2)[Gal(a1-3)]Gal(b1-3)GlcNAc(b1-6)GalNAc
In short: as §1

[28] = biological target: Fuc(a1-2)[Gal(a1-3)]Gal(b1-4)Glc
In short: as §1

[29] = biological target: Fuc(a1-2)[Gal(a1-3)]Gal(b1-4)GlcNAc
In short: as §1

[30] = biological target: Fuc(a1-2)[Gal(a1-3)]Gal(b1-4)GlcNAc(b1-2)Man
In short: as §1

B1: CC1G-10077 (Coprinopsis cinerea), A8NDT7 (protein)
chain: MALNEGVYWIRNSRFTNKVLDLDAANVAKGTSILDFNEHGTFNENHNQLWIVERFQSRDTYLIRSVHSNLVLDLSQGLSANGTPILCWTQHGGTNQQWRIEWVKDDNKTPLYRIVSVATGTAISHNEDDSSAYTVAWSVDDGPKQLWSFDPFVTPLLYRLRVKSTSRVLDLAAASADNGTLALAWEQHTAITKRNQLWWLPYRSGAEEYTIQCLETSTVADLSGGNSGNGTPIYGWQSHGGRNQQWKFEPTSDSGDYYHIKNVEGGSVMDAYMNDSQKRVGGWSNNGGDNQKWLLDPLPSPGPGWVLIQNGGTGKFLCSTPSGDIGTADGPETVYDYSVQWRFIQREYTGVYHVVNRATGAYLRQIGTSMPSIGLAEENDDELKDWWMLETYDNSEIGLASIISRWTGNVLDHYGGVSVQALDNNTENSYRSWAIIPARDWLTSFSLVNGQGGLCLAAQYAREETRLSTTANVNDFHAQWVFRKPSGSSGYTIQNKYNNHYVGGTSARWELVVCCNKYFGIRNTSTQKYLAIEDGQVTFQDQDMTDRKQCWELCSGRATDTSGNDYDLIYMDDDLLEVMIPWVGDKQGDLKHYIEKRATKKPPKDKGGWQLPAAGLIKKPKFNDIRQLLQELIEQWEWDVVNEEREQIQTLVSIDEAEARRLLGRRPHPDIVAAYQRSRSSTLFRIDRQGYFNIAGDRYVNIQGQYGDDSYFHIALPVGVRFGREQIRRFLRDSLDRSTSVTITPTTCKPPSGGPDYNRDPDSDGDNSWIKWTIAVVGTSAIKHSEL
- glycan array binding signal (z-score) [1]: 1.54
- glycan array binding signal (z-score) [2]: -0.092
- glycan array binding signal (z-score) [3]: -0.496
- glycan array binding signal (z-score) [4]: 0.295
- glycan array binding signal (z-score) [5]: -0.235
- glycan array binding signal (z-score) [6]: 0.6
- glycan array binding signal (z-score) [7]: -0.133
- glycan array binding signal (z-score) [8]: -0.471
- glycan array binding signal (z-score) [9]: -0.404
- glycan array binding signal (z-score) [10]: -0.388
- glycan array binding signal (z-score) [11]: -0.414
- glycan array binding signal (z-score) [12]: -0.47
- glycan array binding signal (z-score) [13]: -0.438
- glycan array binding signal (z-score) [14]: -0.332
- glycan array binding signal (z-score) [15]: -0.36
- glycan array binding signal (z-score) [16]: -0.447
- glycan array binding signal (z-score) [17]: -0.434
- glycan array binding signal (z-score) [18]: -0.425
- glycan array binding signal (z-score) [19]: -0.475
- glycan array binding signal (z-score) [20]: -0.478
- glycan array binding signal (z-score) [21]: -0.402
- glycan array binding signal (z-score) [22]: -0.481
- glycan array binding signal (z-score) [23]: -0.466
- glycan array binding signal (z-score) [24]: -0.464
- glycan array binding signal (z-score) [25]: -0.476
- glycan array binding signal (z-score) [26]: -0.488
- glycan array binding signal (z-score) [27]: 0.202
- glycan array binding signal (z-score) [28]: -0.408
- glycan array binding signal (z-score) [29]: -0.459
- glycan array binding signal (z-score) [30]: -0.407

From the supplement of paper PMC8728848
